# Measured values from the supplement of paper PMC3334620.
# The full ranking holds about 33,000 sequences; the median of “E-score (-0.5 to 0.5)” is about -0.054, and the highest 2% start at about 0.39. The list shows a part of the results.
# Molecular target: Ylr278c (UniProt Q05854)
# Test: PBM E-score (8-mer binding enrichment) (E-score (-0.5 to 0.5)); higher = stronger / more preferred TF binding; most listed sequences are background and not binding sites
# Settings: protein concentration: 200 nM; construct: GST-DNA-binding domain
# Summary of the method: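 PURExpress in vitro transcription/translation supplied GST-tagged yeast transcription factors, either full-length or DNA-binding domain. Applied at about 100-200 nM to universal all-10-mer Agilent arrays double-stranded by primer extension, the bound protein was detected with fluorescent anti-GST. E-scores, modified Wilcoxon-Mann-Whitney statistics, were given by the Universal PBM Analysis Suite to ungapped eight-base words pooled with their reverse complements after masliner normalisation.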
row,Sequence,PBM E-score
1,AAACATAG,-0.153
2,ACTTCTAG,-0.27
3,AAGTGCGG,0.297
4,CCATTGTC,0.0343
5,ATTGGGGG,-0.203
6,AGCCGTAG,0.0828
7,GCCAGTAA,-0.0512
8,ACATGTTC,-0.152
9,ACAATAGA,-0.133
10,ACGGTAGC,-0.13
11,CTCGCTTC,-0.0187
12,ACATATGG,-0.174
13,GGCGCAGA,0.0101
14,CTACAACC,-0.129
15,AACGTCGA,-0.269
16,CAAACGTG,-0.0432
17,TAGCATAA,-0.111
18,CACAATAG,-0.0599
19,GGCCGGAA,0.422
20,AAGACGGG,0.195
21,GACCGTAA,0.0267
22,AGACGGAC,0.234
23,CAGCTCTC,-0.115
24,CAGCAGTA,-0.18
25,GCATTACC,0.105

row,Sequence,PBM E-score
1,TAGGACTA,-0.0594
2,AAATCTTG,-0.0994
3,ATCCCCCA,-0.284
4,ACTGGAAG,-0.217
5,GCCTAAGC,-0.104
6,GAACGCCC,0.191
7,AATTTGGC,-0.131
8,ACGAGCGC,0.0689
9,AATTACGT,-0.192
10,ATGTGATA,-0.278
11,AAAATCCG,0.451
12,ATACTATA,-0.0464
13,AAAATCGA,-0.177
14,GCGTCTGA,-0.169
15,CTGAGGCA,-0.222
16,CGTAAAAG,0.0222
17,CGATGCGC,0.115
18,AACGATAT,-0.121
19,CAACTCAA,0.0251
20,TAGTCAAA,-0.144
21,CATTGAGC,-0.161
22,CGATCTTA,0.0101
23,CGAAGAGC,0.231
24,ACGGTCCT,-0.214
25,TTACGGAA,0.283

row,Sequence,PBM E-score
1,CTTAAGAC,-0.0305
2,CCGCGTAA,0.195
3,ATGCGCTA,-0.123
4,ATGATGGG,-0.208
5,AGTGCCGG,0.386
6,AACCGTGT,-0.0935
7,ACGAGACG,-0.0236
8,GTTTGCCA,-0.145
9,AAACCCAT,0.125
10,CACTAAGC,-0.163
11,AGCTTGAT,-0.281
12,ATAGCAAG,-0.0436
13,GCGTCAAC,0.0422
14,GTTAGTCA,-0.0172
15,CACGCAAG,-0.244
16,ACTGCACC,-0.00176
17,CGGGGACA,0.197
18,CGATCTCC,0.294
19,TTTAGAAA,0.056
20,CGGTTTAC,0.103
21,AGTCCTGA,-0.204
22,GCTCTATA,-0.101
23,AATGGACT,-0.188
24,CTGACTGA,-0.285
25,AAAGTGGG,0.032

row,Sequence,PBM E-score
1,AATTATAT,0.0602
2,CGCGCGAG,0.139
3,AGAACAAA,0.0628
4,CAGCTAGC,-0.126
5,CACGAGAG,-0.139
6,AATGGGAT,0.0269
7,GACCTGAA,0.0825
8,CTAATCTC,-0.0805
9,TCAGCTAA,-0.307
10,CGCATGTC,0.0679
11,GATACATA,-0.0276
12,CGGAACCG,0.337
13,CGTAACCA,-0.0942
14,CCTTCCCC,0.0434
15,ACACCAGA,-0.117
16,AAACGTTA,-0.181
17,CCAAGGGC,-0.205
18,GCCGACAA,0.158
19,ATCTTTGA,-0.0894
20,CTTCAGCA,-0.261
21,AAGACTAG,-0.244
22,GTCTTGAA,0.022
23,AAGCCCGT,0.0339
24,TAAAAACA,-0.143
25,GCACAGCC,0.0526

row,Sequence,PBM E-score
1,ACCCGATG,0.25
2,CCAAACGC,-0.0836
3,TGGGTAAA,-0.133
4,AATGGGAG,-0.0663
5,ACGTTGTG,-0.141
6,CGGCGACA,0.24
7,GAGAAATC,0.152
8,ACGTCTCC,0.11
9,GACTCCGA,0.467
10,AATAAACA,0.0315
11,AGGTGGGA,-0.08
12,GGCATATA,0.0899
13,ACCGCTGA,0.013
14,CTAGGGTA,-0.303
15,ACCTCGAC,-0.178
16,GTTCCAAA,-0.0952
17,AATAGCAG,-0.0178
18,AATCGGTG,0.126
19,ATTCTATC,-0.108
20,AGGACACC,0.0153
21,GATCATGC,-0.167
22,CGAGGAGA,-0.106
23,ACAGCGCG,-0.0038
24,ATCTGTGC,-0.167
25,AAGGCAAG,-0.08

row,Sequence,PBM E-score
1,AGGAAGTC,-0.156
2,AAGTCAGT,-0.0866
3,AGTAATGA,-0.186
4,CGCGCCTC,0.17
5,GCCCGACC,0.164
6,AGTAGATA,-0.0517
7,AGTTGCCC,0.0354
8,AGCCCACC,0.111
9,GGGAAAAA,0.231
10,ACATTGAT,0.0346
11,CAGAGGTC,-0.0838
12,GAGGGCGA,0.0395
13,CTGATTCC,0.0889
14,AAGCACGA,-0.155
15,CACGCCAC,-0.00118
16,CGTCACGC,0.0345
17,AAAACAAA,0.0676
18,GCATTTAC,-0.015
19,AATAGTTG,-0.0614
20,CCCGATCC,0.202
21,ACACCAAA,-0.1
22,GCTGGAAC,-0.0427
23,GCACGTGC,0.0173
24,CGGATTCC,0.427
25,AGGTAACC,-0.173

row,Sequence,PBM E-score
1,CCGTCTGC,0.131
2,AGCCAAAT,0.132
3,AAATGTCG,-0.0387
4,TATTACAA,-0.0558
5,ACAACGAG,-0.147
6,ATGCGGTA,0.131
7,AATCTCAT,-0.0498
8,CTAGGGGA,-0.159
9,CAGTCACA,-0.376
10,CACAATCC,0.09
11,AAGGAGCA,-0.0618
12,CTCGACAG,-0.193
13,ACTCACGA,-0.203
14,ATTTTTAG,-0.0597
15,CTGGTGTC,-0.0758
16,TCGTCGCA,-0.0658
17,CGGAAAGA,0.297
18,GAGCTGCC,0.0529
19,CCAAACTA,-0.0757
20,AACGAACT,-0.202
21,GACACTGC,-0.117
22,CCATAACC,-0.21
